Experimental findings from the supplement of paper PMC11876631 are described below.

Sequences and labels used below:
B1: thiL F13W (protein)
chain: MACGEFSLIARYWDRVRSSRLDVELGIGDDCALLNIPEKQTLAISTDTLVAGNHFLPDIDPADLAYKALAVNLSDLAAMGADPAWLTLALTLPDVDEAWLESFSDSLFDLLNYYDMQLIGGDTTRGPLSMTLGIHGFVPMGRALTRSGAKPGDWIYVTGTPGDSAAGLAILQNRLQVADAKDADYLIKRHLRPSPRILQGQALRDLANSAIDLSDGLISDLGHIVKASDCGARIDLALLPFSDALSRHVEPEQALRWALSGGEDYELCFTVPELNRGALDVALGHLGVPFTCIGQMTADIEGLCFIRDGEPVTLDWKGYDHFATP
B2: thiL V95D (protein)
chain: B1 chain with W13F, V95D
B3: thiL F13Q (protein)
chain: B1 chain with W13Q
B4: thiL V95A (protein)
chain: B1 chain with W13F, V95A
B5: thiL V95Q (protein)
chain: B1 chain with W13F, V95Q
B6: thiL V95W (protein)
chain: B1 chain with W13F, V95W
B7: thiL V95P (protein)
chain: B1 chain with W13F, V95P

Where a chain is given by its changes, count along the chain named. Names may count otherwise. ± gives the standard deviation of the averaged measurements. Laboratory Escherichia coli strains with one amino-acid change in an essential protein, pooled on minimal glucose agar with carbenicillin or gentamicin at twice the control MIC (plus kanamycin and chloramphenicol for the plasmids), 48 h. Fold change of barcode share against drug-free plates; higher = less susceptible. Active = above 20 in both replicates (the paper's putatively resistant). '<' = one read or none on drug, '>' = one read or none on a drug-free plate. Shares are relative, so most strains fall below 1 when a few take over. Listed are strains with at least 15 reads on both drug-free plates, and hits; most hits rest on fewer reference reads. Replicate rank correlation about 0.5. Edits are read from barcodes.

The first data set deals with Escherichia coli (laboratory strain). The experiment in a line: barcode share on antibiotic plates over drug-free plates; higher = less susceptible. As to conditions: antibiotic: carbenicillin; 2× MIC (3.1 µg/mL). On the procedure: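 A pool of E. coli strains, each edited to carry one amino-acid change in an essential protein, was grown for 48 h on minimal glucose agar with or without antibiotic; strain barcodes were sequenced; mean of two replicates.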
Consider B1, for which the “fold change of barcode share” value is 0.477 ± 0.041.

As for B2, the “fold change of barcode share” value turned out to be 0.881 ± 0.091.

B3: the “fold change of barcode share” value is 0.394 ± 0.015.

As for B4, the “fold change of barcode share” value is 0.434 ± 0.0056.

As for B5, the “fold change of barcode share” value is 0.731 ± 0.31.

On to B6, for which the “fold change of barcode share” value is 0.679 ± 0.15.

Turning to B7, the “fold change of barcode share” value turned out to be 0.581 ± 0.037.

The data set is the same for the next values; noted with them: antibiotic: gentamicin; 2× MIC (MIC 0.45 µg/mL).
In the case of B1, the “fold change of barcode share” value came to 0.00583 ± 0.0028.

As for B2, the “fold change of barcode share” value was determined as 0.0126 ± 0.0053.

B3: the “fold change of barcode share” value was found to be 0.00836 ± 0.0066.

Consider B4, for which the “fold change of barcode share” value is 0.01849 ± 6.6e-05.

For the protein B5, the “fold change of barcode share” value is 0.0875 ± 0.11.

Regarding B6, the “fold change of barcode share” value was determined as 0.00773 ± 0.0024.

Consider B7, for which the “fold change of barcode share” value amounted to 0.0169 ± 0.0013.
